{
  "source": "the supplement of paper PMC8728848",
  "experiment_in_all_cases": "glycan array binding signal (z-score within array); higher = stronger binding",
  "conditions_in_all_cases": "glycan notation: IUPAC condensed, linker removed",
  "key": {"[1]": {"molecular_target": "Fuc(a1-3)GlcNAc", "how_it_was_run": "(§1)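 Columns mapping to the same glycan were averaged after glycan names were converted to IUPAC-condensed notation. The data come from 3228 arrays in the Consortium for Functional Glycomics database, limited to those with an available protein sequence. Binding is reported as a within-array Z-score averaged across arrays of one protein sequence and across linkers.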"}, "[2]": {"molecular_target": "Fuc(a1-3)[Gal(b1-4)]Glc6S", "how_it_was_run": "as §1"}, "[3]": {"molecular_target": "Fuc(a1-3)[Gal(b1-4)]GlcNAc", "how_it_was_run": "as §1"}, "[4]": {"molecular_target": "Fuc(a1-3)[Gal(b1-4)]GlcNAc(b1-2)Man", "how_it_was_run": "as §1"}, "[5]": {"molecular_target": "Fuc(a1-3)[Gal(b1-4)]GlcNAc(b1-2)Man(a1-3)[Fuc(a1-3)[Gal(b1-4)]GlcNAc(b1-2)Man(a1-6)]Man(b1-4)GlcNAc(b1-4)GlcNAc", "how_it_was_run": "as §1"}, "[6]": {"molecular_target": "Fuc(a1-3)[Gal(b1-4)]GlcNAc(b1-2)Man(a1-3)[Fuc(a1-3)[Gal(b1-4)]GlcNAc(b1-2)Man(a1-6)]Man(b1-4)GlcNAc(b1-4)[Fuc(a1-6)]GlcNAc", "how_it_was_run": "as §1"}, "[7]": {"molecular_target": "Fuc(a1-3)[Gal(b1-4)]GlcNAc(b1-3)Gal(b1-3)[Fuc(a1-4)]GlcNAc", "how_it_was_run": "as §1"}, "[8]": {"molecular_target": "Fuc(a1-3)[Gal(b1-4)]GlcNAc(b1-3)Gal(b1-4)[Fuc(a1-3)]GlcNAc", "how_it_was_run": "as §1"}, "[9]": {"molecular_target": "Fuc(a1-3)[Gal(b1-4)]GlcNAc(b1-3)Gal(b1-4)[Fuc(a1-3)]GlcNAc(b1-3)Gal(b1-4)[Fuc(a1-3)]GlcNAc", "how_it_was_run": "as §1"}, "[10]": {"molecular_target": "Fuc(a1-3)[Gal(b1-4)]GlcNAc(b1-3)GalNAc", "how_it_was_run": "as §1"}, "[11]": {"molecular_target": "Fuc(a1-3)[Gal(b1-4)]GlcNAc(b1-6)GalNAc", "how_it_was_run": "as §1"}, "[12]": {"molecular_target": "Fuc(a1-3)[Gal(b1-4)]GlcNAc(b1-6)[Gal(b1-3)GlcNAc(b1-3)]Gal(b1-4)Glc", "how_it_was_run": "as §1"}, "[13]": {"molecular_target": "Fuc(a1-3)[Gal(b1-4)]GlcNAc6S", "how_it_was_run": "as §1"}, "[14]": {"molecular_target": "Fuc(a1-3)[Gal3S(b1-4)]Glc", "how_it_was_run": "as §1"}, "[15]": {"molecular_target": "Fuc(a1-3)[Gal3S(b1-4)]GlcNAc", "how_it_was_run": "as §1"}, "[16]": {"molecular_target": "Fuc(a1-3)[Gal3S(b1-4)]GlcNAc6S", "how_it_was_run": "as §1"}, "[17]": {"molecular_target": "Fuc(a1-3)[GalNAc(b1-4)]GlcNAc", "how_it_was_run": "as §1"}, "[18]": {"molecular_target": "Fuc(a1-3)[GalNAc(b1-4)]GlcNAc6S", "how_it_was_run": "as §1"}, "[19]": {"molecular_target": "Fuc(a1-4)GlcNAc", "how_it_was_run": "as §1"}, "[20]": {"molecular_target": "Fuc(b1-3)GlcNAc", "how_it_was_run": "as §1"}, "[21]": {"molecular_target": "Gal(a1-2)Gal", "how_it_was_run": "as §1"}, "[22]": {"molecular_target": "Gal(a1-3)Gal", "how_it_was_run": "as §1"}, "[23]": {"molecular_target": "Gal(a1-3)Gal(b1-3)GlcNAc", "how_it_was_run": "as §1"}, "[24]": {"molecular_target": "Gal(a1-3)Gal(b1-3)GlcNAc(b1-2)Man", "how_it_was_run": "as §1"}, "[25]": {"molecular_target": "Gal(a1-3)Gal(b1-3)GlcNAc(b1-2)Man(a1-3)[Gal(a1-3)Gal(b1-3)GlcNAc(b1-2)Man(a1-6)]Man(b1-4)GlcNAc(b1-4)GlcNAc", "how_it_was_run": "as §1"}, "[26]": {"molecular_target": "Gal(a1-3)Gal(b1-3)GlcNAc(b1-3)GalNAc", "how_it_was_run": "as §1"}, "[27]": {"molecular_target": "Gal(a1-3)Gal(b1-3)GlcNAc(b1-6)GalNAc", "how_it_was_run": "as §1"}, "[28]": {"molecular_target": "Gal(a1-3)Gal(b1-3)[Fuc(a1-4)]GlcNAc(b1-2)Man(a1-3)[Gal(a1-3)Gal(b1-3)[Fuc(a1-4)]GlcNAc(b1-2)Man(a1-6)]Man(b1-4)GlcNAc(b1-4)GlcNAc", "how_it_was_run": "as §1"}, "[29]": {"molecular_target": "Gal(a1-3)Gal(b1-4)Glc", "how_it_was_run": "as §1"}, "[30]": {"molecular_target": "Gal(a1-3)Gal(b1-4)GlcNAc", "how_it_was_run": "as §1"}, "[31]": {"molecular_target": "Gal(a1-3)Gal(b1-4)GlcNAc(b1-2)Man", "how_it_was_run": "as §1"}, "[32]": {"molecular_target": "Gal(a1-3)Gal(b1-4)GlcNAc(b1-2)Man(a1-3)[Gal(a1-3)Gal(b1-4)GlcNAc(b1-2)Man(a1-6)]Man(b1-4)GlcNAc(b1-4)GlcNAc", "how_it_was_run": "as §1"}, "[33]": {"molecular_target": "Gal(a1-3)Gal(b1-4)GlcNAc(b1-3)GalNAc", "how_it_was_run": "as §1"}, "[34]": {"molecular_target": "Gal(a1-3)Gal(b1-4)GlcNAc(b1-6)GalNAc", "how_it_was_run": "as §1"}, "[35]": {"molecular_target": "Gal(a1-3)Gal(b1-4)[Fuc(a1-3)]GlcNAc", "how_it_was_run": "as §1"}, "[36]": {"molecular_target": "Gal(a1-3)Gal(b1-4)[Fuc(a1-3)]GlcNAc(b1-2)Man(a1-3)[Gal(a1-3)Gal(b1-4)[Fuc(a1-3)]GlcNAc(b1-2)Man(a1-6)]Man(b1-4)GlcNAc(b1-4)GlcNAc", "how_it_was_run": "as §1"}, "[37]": {"molecular_target": "Gal(a1-3)GalNAc", "how_it_was_run": "as §1"}},
  "note": "The other results are listed elsewhere or left out.",
  "data": [
    {"binder": "GS13686A-pdi-553-26-553 (Parabacteroides distasonis) (protein) NENPDKPTDDVNYNMNEPRLASTLRGGLIIEGNVEQRLKPLQIDFYSQMTVDGGGWGTKNYIQDDEWNNLVWEEYLKQIASINIVIRSLTEKDKDAYANTIAFARIWRVYVHTLAADKFGPMPFPAYEIVEANPPYKSLKDIYDEYFRELDAAINGFNDSAQPIFSDAGIDLIYKNDVSKWKRFANSLRLRLAVRLTEVDQEKCIAEANAAISSPAGLISDKADNAYMPPKADGSWGQDYNYTMFQITWSGPICMSKSVEKLVTNIGGVAWPQGVVNQTSGVAVSSVHPEKVDPRAPKIFQPGIENGDWKGLVYGPKAEEANTGIYQSKQCAELGFIIKDGYPYKSRPYDLFLSEEVHFLKAELYARGFIAGDAKSEYEAGVRASFATWGVTSEVDDYLTSTEKNEAGTSARYDDQQGAGNTALEKIITQKYIAGIPDLAQEGWNDKRRLNLPRLDVAVYRDQAVYNNNDKDILKSANFIKRMRYPTKESLINATEYEKGKSMLGGKGDIVSTPLWWDKNSNYCTSSK", "values": [
      {"measurement": "glycan array binding signal (z-score)", "setting": "[1]", "value": -0.163},
      {"measurement": "glycan array binding signal (z-score)", "setting": "[2]", "value": -0.011},
      {"measurement": "glycan array binding signal (z-score)", "setting": "[3]", "value": -0.209},
      {"measurement": "glycan array binding signal (z-score)", "setting": "[4]", "value": -0.253},
      {"measurement": "glycan array binding signal (z-score)", "setting": "[5]", "value": -0.145},
      {"measurement": "glycan array binding signal (z-score)", "setting": "[6]", "value": 0.404},
      {"measurement": "glycan array binding signal (z-score)", "setting": "[7]", "value": -0.178},
      {"measurement": "glycan array binding signal (z-score)", "setting": "[8]", "value": -0.175},
      {"measurement": "glycan array binding signal (z-score)", "setting": "[9]", "value": -0.035},
      {"measurement": "glycan array binding signal (z-score)", "setting": "[10]", "value": -0.168},
      {"measurement": "glycan array binding signal (z-score)", "setting": "[11]", "value": -0.24},
      {"measurement": "glycan array binding signal (z-score)", "setting": "[12]", "value": 0.916},
      {"measurement": "glycan array binding signal (z-score)", "setting": "[13]", "value": -0.276},
      {"measurement": "glycan array binding signal (z-score)", "setting": "[14]", "value": -0.395},
      {"measurement": "glycan array binding signal (z-score)", "setting": "[15]", "value": 0.145},
      {"measurement": "glycan array binding signal (z-score)", "setting": "[16]", "value": -0.136},
      {"measurement": "glycan array binding signal (z-score)", "setting": "[17]", "value": -0.172},
      {"measurement": "glycan array binding signal (z-score)", "setting": "[18]", "value": 0.197},
      {"measurement": "glycan array binding signal (z-score)", "setting": "[19]", "value": 0.245},
      {"measurement": "glycan array binding signal (z-score)", "setting": "[20]", "value": -0.354},
      {"measurement": "glycan array binding signal (z-score)", "setting": "[21]", "value": 0.062},
      {"measurement": "glycan array binding signal (z-score)", "setting": "[22]", "value": -0.257},
      {"measurement": "glycan array binding signal (z-score)", "setting": "[23]", "value": -0.119},
      {"measurement": "glycan array binding signal (z-score)", "setting": "[24]", "value": 0.156},
      {"measurement": "glycan array binding signal (z-score)", "setting": "[25]", "value": 0.2},
      {"measurement": "glycan array binding signal (z-score)", "setting": "[26]", "value": -0.053},
      {"measurement": "glycan array binding signal (z-score)", "setting": "[27]", "value": -0.218},
      {"measurement": "glycan array binding signal (z-score)", "setting": "[28]", "value": 0.102},
      {"measurement": "glycan array binding signal (z-score)", "setting": "[29]", "value": -0.06},
      {"measurement": "glycan array binding signal (z-score)", "setting": "[30]", "value": -0.128},
      {"measurement": "glycan array binding signal (z-score)", "setting": "[31]", "value": -0.324},
      {"measurement": "glycan array binding signal (z-score)", "setting": "[32]", "value": -0.004},
      {"measurement": "glycan array binding signal (z-score)", "setting": "[33]", "value": -0.168},
      {"measurement": "glycan array binding signal (z-score)", "setting": "[34]", "value": -0.447},
      {"measurement": "glycan array binding signal (z-score)", "setting": "[35]", "value": 0.829},
      {"measurement": "glycan array binding signal (z-score)", "setting": "[36]", "value": 0.196},
      {"measurement": "glycan array binding signal (z-score)", "setting": "[37]", "value": -0.14}
    ]}
  ]
}
